Measured values taken from publication PMC4336329 (PLoS ONE, 2015).
The campaign covered roughly 310,000 compounds. About 14,000 (4.5%) showed an effect of 50% or more. Effects have a minus sign here. The list shows a part of the results.

Molecular target: human ether-à-go-go-related gene (hERG) potassium channel (human, UniProt Q12809)
Assay: primary screen, population patch clamp on CHO cells stably expressing hERG
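Note: peak tail current of the secondary pulse compared with the same well before compound.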

Sequence of human ether-à-go-go-related gene (hERG) potassium channel (Q12809 whole entry, looked up): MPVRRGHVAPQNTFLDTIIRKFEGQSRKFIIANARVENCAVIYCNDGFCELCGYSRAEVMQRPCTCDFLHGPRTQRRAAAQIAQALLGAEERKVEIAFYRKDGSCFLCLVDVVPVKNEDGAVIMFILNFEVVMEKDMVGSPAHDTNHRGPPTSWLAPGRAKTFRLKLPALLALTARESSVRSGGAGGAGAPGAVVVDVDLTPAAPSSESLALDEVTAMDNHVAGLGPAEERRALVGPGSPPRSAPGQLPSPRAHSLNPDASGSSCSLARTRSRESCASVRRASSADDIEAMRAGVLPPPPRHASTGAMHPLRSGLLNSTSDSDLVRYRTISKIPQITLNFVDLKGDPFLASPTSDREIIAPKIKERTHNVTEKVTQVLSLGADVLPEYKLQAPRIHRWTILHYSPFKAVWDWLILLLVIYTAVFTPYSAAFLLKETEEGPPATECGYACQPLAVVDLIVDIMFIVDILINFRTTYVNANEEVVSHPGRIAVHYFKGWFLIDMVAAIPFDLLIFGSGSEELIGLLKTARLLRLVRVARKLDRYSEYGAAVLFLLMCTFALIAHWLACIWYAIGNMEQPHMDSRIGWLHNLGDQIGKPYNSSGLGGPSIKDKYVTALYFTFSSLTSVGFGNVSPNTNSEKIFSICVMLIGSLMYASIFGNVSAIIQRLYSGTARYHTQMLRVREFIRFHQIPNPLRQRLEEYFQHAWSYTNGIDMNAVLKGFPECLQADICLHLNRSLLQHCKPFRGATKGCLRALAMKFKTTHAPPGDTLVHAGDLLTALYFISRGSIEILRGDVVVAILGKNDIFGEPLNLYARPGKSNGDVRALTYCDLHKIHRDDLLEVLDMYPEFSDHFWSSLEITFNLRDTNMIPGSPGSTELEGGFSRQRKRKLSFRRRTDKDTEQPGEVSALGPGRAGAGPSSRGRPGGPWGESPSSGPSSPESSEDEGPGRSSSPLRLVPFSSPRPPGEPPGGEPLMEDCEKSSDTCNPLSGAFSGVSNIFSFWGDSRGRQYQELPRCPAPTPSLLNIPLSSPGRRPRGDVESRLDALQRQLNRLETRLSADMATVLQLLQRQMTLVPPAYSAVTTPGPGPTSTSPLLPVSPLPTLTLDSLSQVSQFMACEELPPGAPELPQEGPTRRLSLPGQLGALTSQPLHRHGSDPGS

Row | Compound | hERG current change (%, negative = inhibition) at 10uM [%]
1 | Cn1c(SCc2ccccc2F)nnc1-c1ccccn1 | -14.5
2 | CCc1nc(SCC(=O)N2CCC(C)CC2)c2c(=O)n(C)c(=O)n(C)c2n1 | -11.6
3 | Oc1ccc2ccccc2c1CN1CC=C(c2ccccc2)CC1 | 40.6
4 | c1ccc(-c2nnc(-c3c[nH]c4ccccc34)nc2-c2ccccc2)cc1 | 2.71
5 | O=C(CN1CCN(c2nc(-c3ccc(Cl)cc3)cs2)CC1)NCc1ccco1 | -42.4
6 | Cc1cccc2c(=O)c(C(=O)NCc3ccc(F)cc3)c[nH]c12 | 5.04
7 | Cc1ccc(COC(=O)CCc2nc3ccccc3c(=O)[nH]2)cc1 | -13.3
8 | Cc1ccc2cc(NC(=O)c3ccccc3)ccc2n1 | 5.36
9 | CNC(=O)c1cnn(-c2nc(-c3ccc(OC)cc3)cs2)c1C(F)(F)F | 18.8
10 | CN(CC(=O)Nc1cccnc1)S(=O)(=O)c1ccccc1 | 1.6
11 | CCc1c(C)nc(N)c(C#N)c1-c1ccccc1 | 14.7
12 | O=C(O)C1CC=CCC1C(=O)N1CCc2ccccc21 (centres unmarked) | 18.3
13 | O=C(COC(=O)CNC(=O)c1cccc([N+](=O)[O-])c1)NCc1ccco1 | -7.06
14 | COc1ccc(/C=C(\NC(=O)c2ccco2)C(=O)NC(Cc2ccccc2)C(=O)O)cc1 (centres unmarked) | 27.7
15 | Cc1ccc(C(=O)N/C(=C\c2cccs2)C(=O)NCc2ccncc2)cc1 | -52.9
16 | COc1ccc(-n2c(C)cc(/C=C3\SC(=S)NC3=O)c2C)cc1 | 11.2
17 | Cc1cc[n+](-c2nc3ccccc3nc2[N-]S(=O)(=O)c2cccs2)cc1C | -1.5
18 | CC1CCCN(C(=O)c2ccc3c(=O)n(Cc4ccc5c(c4)OCO5)c(=S)[nH]c3c2)C1 (centres unmarked) | 1.16
19 | O=C(c1cccc2c1-c1ccccc1/C2=N/O)N1CCCCC1 | -24.4
20 | CC(=O)Nc1ccc(N(CC(=O)NC2CCCC2)C(=O)CCC(=O)Nc2cc(C)on2)cc1 | 27.2
21 | O=C(NC1CCCCC1)c1ccccc1NC(=S)NC(=O)C1CC1 | 33.4
22 | COC(=O)[C@@H]1CC(O)CN1C(=O)C12CC3CC(CC(C3)C1)C2 (some centres unmarked) | 10.4

Row | Compound | hERG current change (%, negative = inhibition) at 10uM [%]
23 | CC1CC(NC(=O)c2cc3c(=O)n4ccccc4nc3n2C)CC(C)(C)C1 (centres unmarked) | -2.43
24 | O=C(CN(Cc1ccc(F)cc1)C(=O)CNS(=O)(=O)c1ccccc1)NCC1CCCO1 (centres unmarked) | 11.8
25 | COc1cccc(OC)c1OCCNCC1COc2ccccc2O1.Cl (centres unmarked) | -22.5
26 | O=C1NC2(CCCCCC2)Oc2ccccc21 | -18.7
27 | CCCCN1C(=O)/C(=C/c2ccc(N3CCCCCC3)cc2)C(=O)NC1=S | -22.9
28 | COc1ccc(OCC(=O)Nc2ccccc2O)cc1 | -12.5
29 | CCOC(=O)N1CCN(S(=O)(=O)CCNC(=O)c2ccc(OC)cc2)CC1 | -21.6
30 | O=C(Cn1nnc(-c2ccncc2)n1)Nc1ccc2c(c1)CCC2 | 12
31 | C=C(C)C(=O)N1CC2(CC(c3cccc(NC(=O)CC(c4ccccc4)c4ccccc4)c3)=NO2)C[C@H]1C(N)=O (some centres unmarked) | 0.22
32 | CCOP(=O)(OCC)/C(C#N)=C/c1ccc(-c2ccc(F)cc2F)o1 | 5.5
33 | COc1ccc(Cn2c(-c3ccc(OC)cc3)nc3ccccc32)cc1 | -36.9
34 | N#Cc1cccc(NC(=O)Cc2ccccc2)c1 | 13.6
35 | Cc1ccc(C)c(S(=O)(=O)N2CCCC2CNC(=O)C(=O)NCc2ccccc2C)c1 (centres unmarked) | -24.5
36 | COc1cc(/C=N/Nc2ccccn2)ccc1OCC(C)C | 27.5
37 | C=C1c2cc(CC)ccc2NC(=O)N1c1ccc(C)cc1 | 8.71
38 | CN1C(=O)/C(=C\C=C2/CCCN2C)N(C)C1=S | -1.13
39 | O=C(COc1cccc(C(F)(F)F)c1)Nc1ccc(S(=O)(=O)N2CCCCC2)cc1 | -20.6
40 | Cn1c(=O)c2ccccc2n(CC(=O)N2CCCc3ccccc32)c1=O | 3.17
41 | CN(C)S(=O)(=O)c1cccc(C(=O)N2CCc3ccccc32)c1 | -8.42
42 | COc1ccc(Nc2ccc([N+](=O)[O-])cn2)cc1 | 8.41
43 | CC(=O)N1CCN(C(=O)c2ccc3c(c2)S(=O)(=O)c2ccccc2C3=O)CC1 | 16.1
44 | O=C(C1CCCN(S(=O)(=O)c2ccc(Cl)cc2)C1)N1CCCC1 (centres unmarked) | -19

Row | Compound | hERG current change (%, negative = inhibition) at 10uM [%]
45 | CCC(C)(C)n1nnnc1C(c1ccc(OC)c(OC)c1)N1CCN(c2ccc(F)cc2)CC1.Cl (centres unmarked) | -72.9
46 | Nc1c(CO)nnn1-c1ccccc1 | 4.7
47 | O=S(=O)(NC1CC1)c1ccccc1 | 19.6
48 | O=C1C(=O)N2C(=C1C(=O)N1CCCCCC1)c1ccccc1CC21CCCC1 | 24.4
49 | CCCOC(=O)c1cc2ccccc2oc1=O | -5.37
50 | O=C(O)c1ccc(COCC(F)(F)F)cc1 | 1.12
51 | CC(C)c1ccc(N(CC(=O)Nc2ccc(S(=O)(=O)N3CCOCC3)cc2)S(C)(=O)=O)cc1 | 5.99
52 | COc1ccc(CNc2nc3c(c(=O)n(Cc4ccc(F)cc4)c(=O)n3C)n2C)cc1 | -17.5
53 | COc1ccc(CCNC(=O)C2CC(=O)N(C3CCCCCCC3)C2)cc1OC (centres unmarked) | -9.32
54 | Cc1ccc(Cn2c(CCNc3nc(-c4ccc(Cl)c([N+](=O)[O-])c4)cs3)nc3cc(C(=O)NCCCO)ccc32)cc1 | 12.6
55 | CN1C(=O)c2ccc(N3CCCC3)cc2C1=O | 9.87
56 | CCC[N+]1(CC#CC(O)(c2ccccc2)C2CCCCC2)CCCCC1.[Br-] (centres unmarked) | 12.1
57 | Cc1ccc(Cc2cnc(NC(=O)/C(C#N)=C/c3ccc(-c4ccccc4[N+](=O)[O-])o3)s2)cc1 | 17.6
58 | COc1ccc(NC(=O)Nc2cccc(F)c2)c(OC)c1 | 22.5
59 | COc1ccc(Cl)cc1NC(=O)CN(C)C(=O)c1ccc2c(c1)OCCO2 | 15.7
60 | Cc1ccnc(NC(=O)c2cccc(NC(=O)Cc3ccccc3)c2)c1 | -15.8
61 | CCOc1ccccc1C1C(C#N)=C(N)N(N(C)C)C2=C1C(=O)CCC2 (centres unmarked) | -9.28
62 | Cc1ccc(S(=O)(=O)NCC[C@@]2(C)C3CCC2(C)C(=O)C3)cc1 (some centres unmarked) | 0.675
63 | COc1ccc(OCc2nnc(SCC(=O)c3ccccc3)o2)cc1 | -0.982
64 | COc1ccc(-c2cn(Cc3ccc4ccccc4c3)nn2)cc1 | 19.3
65 | COc1cc2c(cc1OC)-c1c(OC)c(OC)c(OC)c3ccnc(c13)C2=O | -53.8
66 | COc1cccc(NC(=O)CN(C)C(=O)C2CCN(C(=O)c3ccccc3C)CC2)c1 | 1.58

Row | Compound | hERG current change (%, negative = inhibition) at 10uM [%]
67 | CCOc1cc(-c2sc(Nc3cc(C)ccc3OC)n[n+]2-c2ccccc2)ccc1OC.[Cl-] | -68.7
68 | Cc1sc(NC(=O)/C=C/C(=O)O)c(C(N)=O)c1-c1ccc(C(C)(C)C)cc1 | -23.7
69 | Cc1cccc(Oc2coc3cc(OC(=O)c4cncc(Br)c4)ccc3c2=O)c1 | -5.03
70 | Cc1cc(C(=O)NNC(=S)NCC2CCCO2)cs1 (centres unmarked) | -8.52
71 | O=C(CCCNC(=O)c1ccc(Cl)cc1)Nc1ccc(F)c(S(=O)(=O)N2CCOCC2)c1 | -33.6
72 | CS(=O)(=O)N(CC(=O)NC1CCCC1)c1ccc2c(c1)OCCO2 | 0.395
73 | COc1ccc(Cn2ccnc2SCC(=O)Nc2ccccc2)cc1 | -13.4
74 | COc1cc(/C=C(/C(=O)O)c2ccc(-c3ccccc3)cc2)cc(OC)c1OC | 4.69
75 | CCOC(=O)N1CCC(N2CCCC(CO)(Cc3cccc(OC)c3)C2)CC1 (centres unmarked) | -51.7
76 | Cc1ccc(S(=O)(=O)NC2CC2)cc1[N+](=O)[O-] | 5.91
77 | O=C(CCc1nc(-c2ccc(Cl)cc2)no1)NC1CCCC1 | 7.7
78 | Cn1cc(CN2CC3C[C@@H]4CC2C[C@H](C3)C4)c(-c2ccc3c(c2)OCCO3)n1 | -8.66
79 | Cc1ccccc1NC(=O)c1cn(-c2ccccc2)nc1-c1ccccc1 | 0.928
80 | O=C1C2CC=CCC2C(=O)N1c1cccc(OS(=O)(=O)c2ccc3ccccc3c2)c1 (centres unmarked) | 0.32
81 | COC(=O)c1cc(NCc2cccs2)ccc1N1CCOCC1 | -1.69
82 | O=C(Nc1ccc(S(=O)(=O)N2CCc3ccccc3C2)cc1)c1ccccc1 | 9.73
83 | Cc1ccc(S(=O)(=O)N(C)C)cc1NC(=O)CSc1ncc(C(F)(F)F)cc1Cl | -33.6
84 | COc1ccc(-c2cc(-c3ccccc3)nc(NN)n2)cc1OC | -2.76
85 | CC1(C)CC(NC(=O)Nc2ccc([N+](=O)[O-])cc2)CC(C)(C)N1 | 9.76
86 | COc1ccc(CNC(=O)CN(C(=O)c2csnn2)c2ccc(C(C)=O)cc2)cc1 | -23.4
